# In US11384098B2, “Pyrrolobenzodiazepine-antibody conjugates” (priority 2017, dated 2022):
# B1: ConjA1 (conjugate)
# heavy: QVQLVQSGAEVKKPGASVKVSCKGSGYTFTDYAMHWVRQAPGQGLEWIGVISTYYGNTNYNQKFKGKATMTVDKSTSTAYMELRSLRSDDTAVYYCARGGLREYYYAMDYWGQGTMVTVSS[human IgG1 constant region not shown]
# light: DIVMTQSPDSLAVSLGERATINCKSSQSLLNSSNQKNYLAWYQQKPGQPPKLLVYFASTRESGVPDRFSGSGSGTDFTLTISSLQAEDVAVYYCQQHYSTPPTFGQGTKLEIKRTVAAPSVFIFPPSDEQLKSGTASVVCLLNNFYPREAKVQWKVDNALQSGNSQESVTEQDSKDSTYSLSSTLTLSKADYEKHKVYACEVTHQGLSSPVTKSFNRGEC
# What was measured:
# SK-N-FI xenograft = assay: In vivo anti-tumor activity in the neuroblastoma SK-N-FI xenograft model; settings: for tumour growth: qd×1, intravenous
# [1] = tested on: human liver cancer LI1097 tumour; assay: In vivo anti-tumor activity in liver cancer patient-derived xenograft (PDX) LI1097 model; design: species or system BALB/c nude mice; settings: for tumour growth: qd×1, up to day 51
# Source text: In vivo anti-tumor activity in liver cancer patient-derived xenograft (PDX) LI1097 model LI1097 seed tumours were revived subcutaneously in NOD/SCID mice, and maintained subcutaneously in BALB/c nude mice before implantation. When the tumour volumes reached 700-1500 mm^3, tumours were collected and cut into pieces of about 2-3 mm3 in diameter. The tumours or tumour pieces were washed with ice cold RPM11640 media (without serum) and subsequently placed into ice cold media for use.
# The skin of five-to-six week old, female BALB/c nude mice was disinfected at the right flank by iodophor before tumour implantation. Each mouse was inoculated without anesthesia, subcutaneously at the right upper flank with one primary human liver cancer LI1097 tumour fragment for tumour development.
# After tumour inoculation, the animals were checked daily for morbidity and mortality. Tumour size was measured by caliper twice weekly in two dimensions. The tumour volume was expressed in mm^3 using the formula: TV=0.5 a×b2 where a and b are the long and short diameters of the tumour, respectively.
# On study day 12, mice were randomised into 5 groups of 8 mice each; the mean tumour volume was ˜170 mm^3 across the cohort. Mice were dosed with the test agents on study day 13 (day 1, indicated by vertical dotted line in the graph). Test mice in this study received a single dose of their allocated test article and dose level on day 1 and tumour growth was monitored thereafter, up to day 51.
# SK-N-FI cells = assay: In vitro cytotoxicity of ConjA1, CellTiter-Glo; type: cell-based, human; settings: cell viability
# Experimental: (§1) Flasks of either Lu135 cell or SK-N-FI cells were trypsin treated and the liberated cells were washed and re-suspended in fresh medium. The cell density was determined by mixing 1:1 with Trypan blue (0.4% (w/v) Sigma TB154) and counting clear/blue (live/dead) cells with a Luna II automated cell counter (Logos Biosystems). The cell suspension was diluted to the required seeding density (20×104/m1), dispensed into white 96-well flat bottomed microplates (50 μl/well) and incubated overnight.
# (§2) A stock solution (1 ml) of ConjA1 (20 μg/ml) was made by dilution of filter-sterile ConjA1 into the same cell culture medium. A set of 8× 10-fold dilutions of stock ConjA1 was made in a sterile 24-well plate by serial transfer of 100 μl into 900 μl of cell culture medium. Each ConjA1 dilution was dispensed, 50 μl/well, into 4 replicate wells of the 96-well plate, containing cells suspension. Control wells received the same volume of culture medium only.
# (§3) After the ConjA1 exposure period, cell viability was measured by Promega CellTiter-Glo by adding 100 μl/well, agitate for 2 mins and read on the Envision using the Luminescence protocol. Data were analysed using Graphpad Prism software.
# [2] = Rat toxicology study, single intravenous dose tolerability and pharmacokinetics
# Hep3B cells = assay: In vitro cytotoxicity in 2D and 3D cell culture; type: cell-based
# Experimental: (§4) Cells were seeded in onco-media (RPMI, 5% FBS, 2 mM L-alanyl-L-glutamine, 1 mM sodium pyruvate and 1% penicillin/streptomycin) in 384-well Elplasia plates pre-coated with pHEMA.
# (§5) The ADC, ConjA1, and B12-1601 compounds were added 24 hours post cell seeding, with a starting concentration of 10 mg/mL, a 10-fold serial dilution across 9 concentrations in quadruplicate. The incubation times with the ADC's compounds were 5 days in 2D- and 7 days in 3D-cultures with media exchanges every 3 days, for a total of 14.
# (§6) At the end of incubation period, cells were lysed and analyzed to determine cell viability. Cell proliferation end-point was analyzed as Percent of Control (POC) using the following formula: POC=relative cell count (compound wells)/relative cell count (vehicle control wells)×100%
# (§7) Data were analysed using Graphpad Prism software.
# A204 cells = assay: In vitro cytotoxicity in 2D and 3D cell culture; type: cell-based
# Experimental: as §4, §5, §6, §7
# Lu-135 cells = assay: In vitro cytotoxicity of ConjA1, CellTiter-Glo; type: cell-based; settings: cell viability
# Experimental: as §1, §2, §3
# [3] = highest dose tested (1.0 mg/kg), day 60
# [4] = highest dose tested (1.0 mg/kg), single dose
molecule,measurement,setting,value
B1,tumour growth,"SK-N-FI xenograft; 0.5 mg/kg, second after 1.0 mg/kg",slowing of tumour growth
same,tumour growth,SK-N-FI xenograft; 1.0 mg/kg,greatest slowing of tumour growth
same,complete responder (CR),SK-N-FI xenograft; [3],4/9
same,partial responders (PR),SK-N-FI xenograft; [3],1/9
same,tumor-free survivor (TFS) at the end of the study,SK-N-FI xenograft; [3],one
same,anti-tumor activity compared to vehicle- and isotype control ADC-treated mice,SK-N-FI xenograft; single dose at 0.5 or 1 mg/kg,dose-dependent anti-tumor activity
same,tumour growth,"[1]; 0.3 mg/kg, second after 1.0 mg/kg",slowing of tumour growth
same,tumour growth,[1]; 1.0 mg/kg,greatest slowing of tumour growth
same,CR,[1]; [4],2/8
same,PR,[1]; [4],3/8
same,EC50 against SK-N-FI cells,SK-N-FI cells,0.1565 µg/mL
same,"bodyweight, lighter than the control group at the end of the study",[2]; 5 mg/kg single intravenous dose,around 15%
same,clinical tolerability,"[2]; 5 mg/kg single intravenous dose, male rats",clinically well tolerated
same,neutrophils reduced compared to concurrent control,"[2]; 5 mg/kg, day 8",around 95%
same,white blood cell count,"[2]; 5 mg/kg, day 8",reduced
same,half-life,"[2]; rat, 5 mg/kg",220 h
same,MTD in rats,[2]; single intravenous dose,at least 5 mg/kg
same,IC50 2D,"Hep3B cells; 2D culture, 5 days incubation",~59.29 µg/mL
same,IC50 3D,"Hep3B cells; 3D culture, 7 days incubation",0.2271 µg/mL
same,IC50 2D,"A204 cells; 2D culture, 5 days incubation",0.006399 µg/mL
same,IC50 3D,"A204 cells; 3D culture, 7 days incubation",0.00146 µg/mL
same,EC50 against Lu-135 cells,Lu-135 cells,0.01765 µg/mL
